The whole screen tested about 350,000 compounds, of which about 260 (0.074%) were called active. Inconclusive means that the source gave no clear call. Such entries were picked first, then a sample of the others. The call rests on the fitted dose curve; in most records, active means well fitted inhibition curve with a large enough effect; inconclusive means small, poorly fitted or top-dose-only effect; inactive means no such curve, though single readings can be large or run the other way. Potencies of inconclusive entries are doubtful fits and often do not repeat.
Target: Ferritin light chain (Equus caballus) (UniProt P02791)
UniProt P02791, sequence (P02791 whole entry, looked up): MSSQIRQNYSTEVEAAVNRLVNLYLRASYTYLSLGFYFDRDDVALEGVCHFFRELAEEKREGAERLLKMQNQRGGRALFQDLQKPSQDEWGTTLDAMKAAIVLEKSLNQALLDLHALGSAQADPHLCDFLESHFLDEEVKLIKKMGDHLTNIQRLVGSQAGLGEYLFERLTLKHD
Experiment: qHTS Assay for Identification of Novel General Anesthetics; further: nearly all actives have a fitted effect of over 20% in size
Conditions: apoferritin/1-aminoanthracene competitive binding, fluorescence; activity change, negative = displacement: at 77.5 µM (top of the series)
Method in brief: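 Concentration-response curves derived by four-parameter Hill fitting of normalized fluorescence, where compounds displaced 1-AMA from 10 uM horse apoferritin following a brief 10 min room-temperature incubation; propofol titration acted as positive control.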
On the % scale 0 is the no-effect control and ±100 the full control effect; potency means the concentration at half of the fitted maximal effect; tags describe the fitted curve by direction and shape.

Activity change, negative = displacement, inconclusive:
COc1ccc(NC2CCCN(C(=O)c3cccc(C(F)(F)F)c3)C2)cc1OC (stereo not drawn) -25.8% [inhibitor]

Potency, inconclusive:
CC(C)(O)C#Cc1ccc(C(=O)N2CCN(c3ccc([N+](=O)[O-])cc3)CC2)cc1 25.1 µM [inhibitor, partial curve]
O=c1cnnc(Nc2ccc(Nc3ccccc3)cc2)[nH]1 31.6 µM [inhibitor, partial curve]
COc1cc2oc(=O)cc(-c3cccc(-c4ccc(C(C)=O)cc4)c3)c2c(OC)c1OC 14.1 µM [inhibitor, partial curve]
O=C(CNc1ccc(F)cc1)N/N=C/C1CC=CCC1 (stereo not drawn) 17.8 µM [inhibitor, partial curve]
CC(C)(C)C(=O)NNC(=O)c1ccc(Oc2cc(Cl)cc(Cl)c2)o1 25.1 µM [inhibitor, partial curve]
CN(C)C(=O)c1cn(-c2ccccc2)nc1-c1cc2ccccc2o1 56.2 µM [inhibitor, partial curve]
CCOC(=O)c1cc(-c2ccc(OC)c(S(=O)(=O)NC3CCCCC3)c2)on1 56.2 µM [inhibitor, single point]
O=C(c1cc(-c2cccc(Cl)c2)nc2ccccc12)N1CCN(c2ccccn2)CC1 15.8 µM [inhibitor, partial curve]
N#CCOC(=O)c1sccc1-n1cccc1 31.6 µM [inhibitor, partial curve]
CCCCCCOC(=O)CCc1c(C)nc(N)[nH]c1=O 39.8 µM [inhibitor, single point]
CCc1ccc(Cn2c(CNS(=O)(=O)c3ccc([N+](=O)[O-])cc3)nc3cccnc32)cc1 12.6 µM [inhibitor, partial curve]
CC1CCCCC1NC(=O)CSc1nnc(COc2ccccc2Cl)o1 (stereo not drawn) 5.01 µM [inhibitor, full curve]
Cc1onc(-c2ccccc2Cl)c1C(=O)NC(=S)Nc1ccccc1F 10 µM [inhibitor, partial curve]
COc1ccc(C(=O)OCC(=O)NCc2ccc3c(c2)OCO3)cc1[N+](=O)[O-] 39.8 µM [inhibitor, single point]
CCc1nnc(NCC(=O)N2CCc3ccccc32)s1 39.8 µM [inhibitor, partial curve]
Cc1cc(C)cc(NC(=O)NCC(O)COc2ccc([N+](=O)[O-])cc2)c1 (stereo not drawn) 25.1 µM [inhibitor, partial curve]
COC(=O)c1c(/N=C/N(C)C)sc2c1CCN(c1ncc(C(F)(F)F)cc1Cl)C2 39.8 µM [inhibitor, partial curve]
Cc1ccc(Nc2nc(CSc3nnc(-c4ccncc4)n3-c3ccccc3C)cs2)cc1 14.1 µM [inhibitor, partial curve]
Cc1oc(-c2ccccc2F)nc1CS(=O)CC(=O)NCc1ccc(F)cc1 (stereo not drawn) 35.5 µM [inhibitor, partial curve]
O=C(Cc1cnc2ncnn2c1)N1CCc2c([nH]c3ccccc23)C1c1ccccc1F (stereo not drawn) 31.6 µM [inhibitor, partial curve]
CCOC(=O)c1ccccc1NC(=O)c1nc2nccc(C)n2n1 39.8 µM [inhibitor, partial curve]
COc1ccccc1/C=C\C=N\NC(=O)CCn1nnc2ccccc21 35.5 µM [inhibitor, partial curve]
Cc1ccc2c(c1)N(CC(=O)NC1CCC(C)CC1)C(=O)c1cccnc1O2 (stereo not drawn) 31.6 µM [inhibitor, partial curve]
CC(/C=C1\SC(=O)N(CC(=O)Nc2ccc(O)cc2)C1=O)=C\c1ccccc1 44.7 µM [inhibitor, partial curve, poor fit]
O=C(O)C1C2CCC(O2)C1C(=O)NCc1ccccc1Br (stereo not drawn) 8.91 µM [inhibitor, partial curve]
O=C(Nc1nncs1)C1(c2ccccc2)CCCC1 14.1 µM [inhibitor, partial curve]
CCOC(=O)/C(C#N)=C/c1ccc(-c2ccccc2)o1 28.2 µM [inhibitor, partial curve]
Cc1nn(Cc2ccc(C(=O)Nc3ccccc3C(F)(F)F)o2)c(C)c1Br 31.6 µM [inhibitor, partial curve]
COc1cc(OC)cc(C(=O)N[C@H](C(=O)OCC(=O)c2ccc3c(c2)NC(=O)CO3)C(C)C)c1 25.1 µM [inhibitor, partial curve]
CCC(Sc1n[nH]c(=O)[nH]c1=O)C(=O)OCc1ccccc1 (stereo not drawn) 50.1 µM [inhibitor, single point]
Cc1cc(C)cc(NC(=O)c2sc3nc4n(c(=O)c3c2C)N=C(c2ccc(F)cc2)CS4)c1 11.2 µM [inhibitor, single point]
COc1ccc(C2=CC(=O)CC(c3ccccc3)C2)cc1 (stereo not drawn) 31.6 µM [inhibitor, partial curve]
Cc1[nH][nH]c(=O)c1N=Nc1ccccc1 50.1 µM [inhibitor, partial curve]
c1ccc(Cc2nn3c(Cn4nnc5ccccc54)nnc3s2)cc1 39.8 µM [inhibitor, single point]
COc1ccc(/C=N/NC(=O)CNS(=O)(=O)c2ccc(C)cc2)cc1 6.31 µM [inhibitor, partial curve]
NC1=NN=C(c2ccc3c(c2)OCCO3)CS1 20 µM [inhibitor, partial curve]
CC(C)NC(=O)c1cc(-c2ccco2)nn1-c1ccc(Cl)cc1 20 µM [inhibitor, partial curve]
CCOc1ccc(-n2c(C)nc3cc(C(=O)NCc4ccc(C)cc4)ccc32)cc1 7.08 µM [inhibitor, partial curve]
Cc1ccc(C(=O)N2CCN(c3ccc([N+](=O)[O-])c(NCc4ccco4)c3)CC2)cc1 25.1 µM [inhibitor, partial curve]
COC(=O)COc1cccc(/C=N/NC(=O)CCSc2ccccc2)c1 44.7 µM [inhibitor, single point]
O=c1c2c3c(sc2nnn1Cc1ccc(F)cc1)CCCC3 50.1 µM [inhibitor, single point]
CN(C)S(=O)(=O)Oc1ccsc1C(=O)Nc1ccc(C(F)(F)F)cc1 35.5 µM [inhibitor, partial curve]
CCn1cnc2scc(-c3ccc(C)c(C)c3)c2c1=O 28.2 µM [inhibitor, partial curve]
O=[N+]([O-])c1ccc(CNc2cccc(Cl)c2)s1 8.91 µM [inhibitor, partial curve]
CCCCCCCOC1(c2ccccc2)OC(=O)c2ccccc21 (stereo not drawn) 11.2 µM [inhibitor, partial curve]
Cc1ccc(CSCCNS(=O)(=O)c2ccc(C)cc2)cc1 35.5 µM [inhibitor, single point]
NC(=O)c1cc([N+](=O)[O-])ccc1NCc1cccnc1 56.2 µM [inhibitor, single point]
Cc1ccc(C2C(/C=C3/SC(=S)NC3=O)=C(c3cccs3)Oc3ccccc32)cc1 (stereo not drawn) 25.1 µM [inhibitor, partial curve]
O=C1NC(=O)/C(=C/c2cccc3ccccc23)S1 39.8 µM [inhibitor, single point]
Cc1ccccc1CS(=O)(=O)c1nnc([C@H](Cc2ccccc2)NC(=O)OC(C)(C)C)o1 8.91 µM [inhibitor, partial curve]

Potency, inactive:
O=C(CSc1nnc(NC(=O)C2CC2)s1)Nc1cccc(F)c1
COc1ccc(-c2nnc(-c3ccc(C)cc3)o2)cc1
CCCC(=O)NC(c1ccc(C(C)C)cc1)c1ccc2cccnc2c1O (stereo not drawn)
COc1ccc(CN2CCC(N(CCc3ccccc3)Cc3ccccc3)CC2)c(OC)c1
CNc1nc(C#N)nc(Nc2ccccc2)n1
CCCn1cc(S(=O)(=O)c2ccccc2)c(=O)c2cc(F)c(N3CCCCCC3)cc21
COc1cc(COc2ccc3c(C)c(Cc4ccccc4)c(=O)oc3c2C)cc(OC)c1OC
CCS(=O)(=O)C1=NN2C(=N)/C(=C\c3ccc(SCc4ccco4)o3)C(=O)N=C2S1
S=c1[nH]nc(COc2ccccc2)n1/N=C/c1cccc(Br)c1
O=S1(=O)C2CC3OC2(CC3c2ccc(F)cc2)CN1Cc1ccc(Cl)cc1 (stereo not drawn)
Cc1cc(C)c2c(N)c(C(=O)NN3CC(=O)N(c4cccc(Cl)c4)CC3=O)sc2n1
CCc1cccc(NC(=O)CSc2n[nH]c(-c3ccccc3Cl)n2)c1
[N-]=C=C1C(=S)NC(=O)[C@H]([n+]2ccccc2)[C@H]1c1ccc(Cl)cc1
COc1cc(OC)c(NC(=O)c2ccc3c(Cl)c4c(nc3c2)CCCC4)cc1Cl
CCCCC(=O)Nc1cccc(-c2cn3ccccc3n2)c1
CSc1ccc(-c2nnn(Cc3ccc(C)cc3)n2)cc1
O=C(O)c1ccc(N/N=C/C2=C(N3CCOCC3)C(=C\c3ccccc3)/CC2)cc1

— PubChem BioAssay AID485281 (National Center for Advancing Translational Sciences (NCATS), 2010)
